Laboratory results taken from the supplement of paper PMC7826260.
This is one part of the list. Each Rep nickase domain was tested in vitro on the same pool of single strands (3 µM enzyme, 1 h, 37 °C); shown is the middle of each 90-letter strand. The score is log2 (uncut reads / reads without enzyme); more negative means more cut, near 0 not cut, and no call is made. Counts are relative to all reads; values above 0 arise when much of the pool is cut.

Assays:
Test in all cases: uncleaved DNA left, log2 of reads against the no-enzyme library (log2 ratio); higher = less cleavage (more negative = more Rep cleavage of the k-mer); sequences stand for … in CTCGTCCG…ACCGGAGA
[1] = test system: T1, Rep nickase domain of Muscovy duck circovirus
T1 sequence (residues 1-111, tag not shown): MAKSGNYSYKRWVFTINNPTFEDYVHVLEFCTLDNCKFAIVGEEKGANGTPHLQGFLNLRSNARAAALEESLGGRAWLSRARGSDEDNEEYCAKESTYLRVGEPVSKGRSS
Procedure: (§1)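 A pool of 90-nt single-stranded DNAs with seven random bases just before the constant AC of the nick site (name = the seven bases) was cut by 3 µM recombinant His6-SUMO-tagged Rep nickase domain (300 nM DNA, 50 mM HEPES pH 8.0, 50 mM NaCl, 1 mM MnCl2, 1 h, 37 °C, three replicates). Uncut DNA was amplified and sequenced.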

[2] = test system: T2, Rep nickase domain of banana bunchy top virus
T2 sequence (residues 1-94, tag not shown): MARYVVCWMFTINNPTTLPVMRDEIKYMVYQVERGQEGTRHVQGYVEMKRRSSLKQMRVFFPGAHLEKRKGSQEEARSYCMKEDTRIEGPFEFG
Procedure: as §1

[3] = test system: T3, Rep nickase domain of cabbage leaf curl virus
T3 sequence (residues 1-116, tag not shown): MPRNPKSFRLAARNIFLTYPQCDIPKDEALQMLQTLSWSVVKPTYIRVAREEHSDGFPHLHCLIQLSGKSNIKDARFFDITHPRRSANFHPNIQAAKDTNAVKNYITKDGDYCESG
Procedure: as §1

[4] = test system: T4, Rep nickase domain of chickpea chlorotic dwarf virus
T4 sequence (residues 1-124, tag not shown): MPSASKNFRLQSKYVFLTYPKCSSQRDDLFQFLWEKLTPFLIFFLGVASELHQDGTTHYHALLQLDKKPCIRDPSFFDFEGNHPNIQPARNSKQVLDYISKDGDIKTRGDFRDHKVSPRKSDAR
Procedure: as §1

[5] = test system: T5, Rep nickase domain of faba bean necrotic yellows virus
T5 sequence (residues 1-98, tag not shown): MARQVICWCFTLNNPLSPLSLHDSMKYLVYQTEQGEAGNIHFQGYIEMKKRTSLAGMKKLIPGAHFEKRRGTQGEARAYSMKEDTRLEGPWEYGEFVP
Procedure: as §1

[6] = test system: T6, Rep nickase domain of maize striate mosaic virus
T6 sequence (residues 1-117, tag not shown): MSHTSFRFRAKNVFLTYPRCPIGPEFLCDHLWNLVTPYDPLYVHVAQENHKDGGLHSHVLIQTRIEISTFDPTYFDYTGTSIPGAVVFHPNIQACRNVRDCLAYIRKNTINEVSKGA
Procedure: as §1

[7] = test system: T7, Rep nickase domain of porcine circovirus 2
T7 sequence (residues 2-116, tag not shown): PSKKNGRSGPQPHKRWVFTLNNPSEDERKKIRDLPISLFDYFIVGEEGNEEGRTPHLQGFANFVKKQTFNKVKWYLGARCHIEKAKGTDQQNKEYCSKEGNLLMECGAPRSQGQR
Procedure: as §1

[8] = test system: T8, Rep nickase domain of tomato golden mosaic virus
T8 sequence (residues 1-124, tag not shown): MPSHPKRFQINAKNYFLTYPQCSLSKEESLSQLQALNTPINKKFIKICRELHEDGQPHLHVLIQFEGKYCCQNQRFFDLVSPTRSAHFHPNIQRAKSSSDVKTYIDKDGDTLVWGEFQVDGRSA
Procedure: as §1

[9] = test system: T9, Rep nickase domain of tomato yellow leaf curl virus
T9 sequence (residues 1-136, tag not shown): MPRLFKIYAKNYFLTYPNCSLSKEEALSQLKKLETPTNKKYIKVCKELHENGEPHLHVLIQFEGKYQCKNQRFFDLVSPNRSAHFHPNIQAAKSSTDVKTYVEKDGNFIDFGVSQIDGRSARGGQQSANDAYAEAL
Procedure: as §1

[10] = test system: T10, Rep nickase domain of wheat dwarf virus
T10 sequence (residues 1-137, tag not shown): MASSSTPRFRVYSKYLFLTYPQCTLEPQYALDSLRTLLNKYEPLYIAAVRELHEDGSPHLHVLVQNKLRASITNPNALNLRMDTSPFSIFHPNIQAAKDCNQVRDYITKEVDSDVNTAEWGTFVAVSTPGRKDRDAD
Procedure: as §1

Row | Sequence | uncleaved DNA left (log2) [1] | uncleaved DNA left (log2) [2] | uncleaved DNA left (log2) [3] | uncleaved DNA left (log2) [4] | uncleaved DNA left (log2) [5] | uncleaved DNA left (log2) [6] | uncleaved DNA left (log2) [7] | uncleaved DNA left (log2) [8] | uncleaved DNA left (log2) [9] | uncleaved DNA left (log2) [10]
1 | TATTAGG | -0.156 | -0.14 | 0.339 | 1.18 | -0.0599 | 1.38 | 0.047 | -0.0464 | -0.254 | -0.107
2 | ATTGACT | -0.0573 | 0.00467 | 0.0808 | -0.142 | 0.0256 | 0.454 | -0.137 | 0.045 | 0.0387 | -0.05
3 | GCAAGCA | 0.0247 | 0.11 | -0.0923 | 0.0584 | 0.147 | -0.267 | 0.156 | 0.0615 | 0.0466 | 0.043
4 | GACGCTG | 0.0114 | 0.0194 | 0.238 | 0.838 | 0.0645 | 1.44 | 0.165 | 0.0263 | -0.12 | -0.0262
5 | TAACCGC | -0.0695 | -0.129 | -0.46 | -1.75 | -0.0237 | -1.22 | -0.339 | -0.213 | -0.075 | -0.177
6 | ACAATAG | 0.147 | 0.195 | -0.517 | 0.15 | 0.0662 | -0.688 | 0.285 | 0.125 | 0.211 | 0.105
7 | GAAGTAA | 0.154 | 0.145 | 0.296 | 0.464 | -0.0942 | 0.843 | 0.145 | 0.127 | 0.0516 | 0.0917
8 | ATTCGGG | 0.141 | -0.0661 | -0.255 | -0.216 | 0.0845 | -0.87 | 0.238 | 0.00959 | 0.00406 | -0.0774
9 | CACTGGG | -0.0402 | -0.222 | -0.643 | -0.799 | -0.0155 | -1.3 | 0.0256 | -0.244 | -0.0542 | -0.261
10 | CGGAGTA | 0.0248 | 0.00215 | 0.165 | 0.0278 | 0.0331 | 0.296 | -0.00552 | -0.0339 | -0.0756 | 0.0256
11 | TTATCGC | 0.00198 | -0.0296 | -0.493 | -0.674 | 0.0311 | -1.24 | 0.0998 | -0.163 | 0.048 | -0.0544
12 | TCTTGTC | 0.0844 | -0.128 | -0.0774 | -0.546 | 0.0437 | -0.926 | 0.0751 | -0.0836 | 0.0164 | 0.0296
13 | TACGCTG | -0.0484 | -0.0105 | 0.18 | 0.691 | 0.0149 | 1.34 | -0.00553 | 0.0656 | -0.17 | -0.0254
14 | TCTTTCC | 0.00227 | -0.0718 | 0.114 | -0.282 | -0.104 | -0.354 | 0.022 | -0.107 | -0.0343 | -0.0658
15 | TCCTGGT | -0.206 | 0.0373 | 0.145 | -0.0079 | -0.0873 | 0.478 | -1.69 | -0.00237 | 0.00868 | 0.00417
16 | GCTCTGC | 0.0141 | -0.0332 | -0.269 | -0.313 | -0.1 | -0.784 | 0.15 | -0.0775 | 0.00643 | -0.0599
17 | GCTGTTT | -0.0237 | 0.138 | 0.175 | -0.429 | 0.0443 | 0.685 | -0.105 | -0.00323 | 0.0467 | 0.135
18 | GTGGCTT | 0.111 | 0.0141 | 0.689 | 1.42 | 0.0284 | 2.07 | 0.0337 | 0.0175 | 0.00265 | 0.00488
19 | GACACTT | -0.113 | -0.265 | 0.447 | -1.47 | 0.0288 | 1.58 | -0.895 | -0.156 | 0.0165 | 0.0587
20 | AGCATGG | 0.0272 | 0.0756 | -0.169 | 0.201 | -0.0167 | -0.00343 | 0.119 | 0.0189 | -0.0213 | 0.158
21 | AGCGTGC | 0.208 | 0.041 | -0.128 | 0.182 | 0.0635 | -0.361 | 0.245 | 0.0987 | 0.213 | 0.23
22 | CGTGGAT | -0.0376 | 0.0777 | 0.202 | 1.5 | 0.0535 | 1.79 | 0.0617 | -0.133 | -0.0902 | 0.0316
23 | GACAATT | 0.15 | -0.00773 | 0.476 | -0.962 | -0.0397 | 1.61 | -2.05 | -0.0404 | 0.115 | 0.139
24 | TCTACAT | 0.0868 | 0.115 | 0.323 | -0.94 | 0.0649 | 0.564 | -0.0617 | -0.0701 | 0.116 | 0.0783
25 | ATTCCGA | -0.00146 | -0.12 | 0.323 | 0.673 | 0.0333 | 0.134 | 0.0539 | -0.147 | -0.0425 | -0.0148
26 | GAGTCTC | -0.0109 | -0.0603 | 0.41 | 0.657 | -0.104 | 1.19 | -2.7 | 0.00608 | 0.0351 | 0.19
27 | GATAGAG | -0.0306 | -0.0793 | -0.274 | -0.117 | 0.0486 | -0.932 | 0.102 | 0.00783 | -0.0104 | -0.0359
28 | TGATACC | -0.186 | -0.0538 | -0.662 | -0.428 | -0.18 | 0.55 | -2.77 | -0.222 | -0.192 | -0.554
29 | GACCTGA | 0.0468 | -0.00738 | 0.236 | 0.553 | -0.0566 | 0.761 | 0.0188 | -0.0706 | 0.0772 | 0.0894
